Experimental data reported in PubChem BioAssay AID1745853 (National Center for Advancing Translational Sciences (NCATS), 2022).
Values joined by “and” are separate entries in the source; they are usually repeats but may differ in a detail not shown here. Equal entries are not always repeated. The list shows a part of the results. These are further read-outs of the screen, such as a control signal, another cell line or another target. No call is given for them.

How the values were obtained:
Assay in all cases: Primary Screen for Target Class Profiling of Small Molecule Inhibitors of Methyltransferases
[1] = target: Glycine N-methyltransferase (Homo sapiens) (UniProt Q14749); conditions: purified enzyme, MTase-Glo SAH luminescence; measured here: GNMT inhibition; at 40 µM; stronger effect = lower value
Method in brief: (§1)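 Each enzyme was reacted with SAM and its substrate, with compounds tested once at 40 uM; SAH formed was read by MTase-Glo luminescence.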

[2] = target: Guanidinoacetate N-methyltransferase (Homo sapiens) (UniProt Q14353); conditions: purified enzyme, MTase-Glo SAH luminescence; measured here: GAMT inhibition; at 40 µM; stronger effect = lower value
Method in brief: as §1

[3] = target: Histamine N-methyltransferase (Homo sapiens) (UniProt P50135); conditions: purified enzyme, MTase-Glo SAH luminescence; measured here: HNMT inhibition; at 40 µM; stronger effect = lower value
Method in brief: as §1

[4] = target: Nicotinamide N-methyltransferase (Homo sapiens) (UniProt P40261); conditions: purified enzyme, MTase-Glo SAH luminescence; measured here: NNMT inhibition; at 40 µM; stronger effect = lower value
Method in brief: as §1

[5] = target: Phenylethanolamine N-methyltransferase (Homo sapiens) (UniProt P11086); conditions: purified enzyme, MTase-Glo SAH luminescence; measured here: PNMT inhibition; at 40 µM; stronger effect = lower value
Method in brief: as §1
% is set by controls: 0 for no effect and ±100 for the full control effect.

| Structure (SMILES) | activity change, negative = inhibition [1] | activity change, negative = inhibition [2] | activity change, negative = inhibition [3] | activity change, negative = inhibition [4] | activity change, negative = inhibition [5] |
| --- | --- | --- | --- | --- | --- |
| FC(F)(F)c1ccc(CN2CCCC3(CC(Cc4ccccc4)=NO3)C2)cc1 (stereo not given) | -5.26% | -6.38% | -0.343% | -14.8% | 0.381% |
| O=C(OC[C@@]1(O)CO[C@@H](O[C@H]2[C@H](Oc3ccc(O)cc3)O[C@H](CO)[C@@H](O)[C@@H]2O)[C@@H]1O)c1ccc(O)cc1 | 1.49% | 1.47% | 4.52% | -8.68% | -2.71% |
| CCOc1ccc(CN2C(=O)c3nc4ccccc4n3CC2(C)C(=O)NC2CCCCCC2)cc1 (stereo not given) | -13.7% | 0.602% | -3.55% | -15.9% | -5.08% |
| COCCN1C(=O)c2ccc(-c3ccco3)n2CC1(C)C(=O)NC1CCC(C)CC1 (stereo not given) | 3.71% | 0% | 8.91% | 6.7% | 3.56% |
| OCc1nc(C2CCNC2)no1 (stereo not given) | -3.03% | -0.527% | 0.342% | -1.36% | 16% |
| CCCOc1ccccc1-c1nc2n[nH]nc2c(=O)[nH]1 | -7.58% | 10.4% | 0.284% | -2.85% | 6.16% |
| Cc1ccc(C(=O)NCCn2c(C)cnc2C)s1 | -6.79% | -9.71% | -16.2% | -12.8% | -4.1% |
| NS(=O)(=O)c1ccc(-n2nc(C(F)(F)F)cc2-c2ccc(Cl)cc2)cc1 | 3.94% and 0.34% | 10.2% and 6.87% | 9.16% and 10.7% | -15.6% and -15.8% | -3.86% and 7.84% |
| O=c1[nH]c2ccc(S(=O)(=O)NCc3cccnc3)cc2[nH]1 | -4.54% | 0% | 2.19% | 7.14% | -6.82% |
| CCC(C(=O)NCCc1ccccc1)n1ccc2cc(S(=O)(=O)N3CCCCC3)ccc21 (stereo not given) | 2.75% | 5.88% | 1.25% | 0.158% | 1.96% |
| COc1ccccc1[C@H](c1cccc2ccccc12)[C@@](C)(C#N)C(=O)N1CCC(c2cccc(C(F)(F)F)c2)CC1 | 1.06% | -2.31% | 1.57% | -37.5% | -5.97% |
| COc1cccc(C(=O)NCCN2CCN(c3ccc(Cl)cc3)CC2)c1 | 1.84% | 11.4% | 5.26% | 0.482% | 12.8% |
| COc1nc2nc(CCc3ccccc3)n(C)c2cc1-c1ccnn1C | -42.5% | -3.52% | -17.3% | -25% | -26.1% |
| CCc1ccc(N2C(=O)c3cc(C(=O)OC)nn3CC2(C)C(=O)NC2CCCCC2)cc1 (stereo not given) | 6.84% | 1.26% | 12.3% | 11% | 9.69% |
| Cc1ccc(N2C(=O)c3cc4ccccc4n3CC2(C)C(=O)NC2CCCC2)c(C)c1 (stereo not given) | 14.6% | 3.73% | -2.54% | -1.17% | -3.35% |
| COc1ccccc1CNC(=O)C1c2c(n(C)c3ccccc23)SCC(=O)N1CCc1ccc(Cl)cc1 (stereo not given) | 8.63% | 0.043% | 2.75% | 0.849% | 3.67% |
| C=CC1(C)CC(O)C2(CCC3C(C)(C(=O)O)CCCC3(C)C2=O)C1 (stereo not given) | -1.17% | -9.69% | 1.74% | -18% | -0.991% |
| Cc1cnn(-c2ccccc2)c1NC(=O)COCc1ccccc1 | 1.55% | 3.45% | -1.04% | -14.4% | -8% |
| CC(C)CNCc1ccc(-c2ccccc2S(=O)(=O)N2CCCC2)cc1 | -0.34% | 0.199% | -32.9% | -13.8% | -5.13% |
| CNC(=O)[C@@H]1CN(C(=O)Cc2c[nH]c3ccccc23)C[C@H]1COC | 0.092% | -0.769% | 3.52% | 1.75% | 4.37% |
| CCCn1c(=O)c2ccc(Cl)cc2n2c(=O)n(CC(=O)Nc3cccc(F)c3)nc12 | -2.63% | -1.46% | 11.7% | -3.69% | -2.64% |
| CCCn1c(=O)c2cc(F)ccc2n2c(SCc3c(F)cccc3Cl)nnc12 | -36.8% | 0% | 2.57% | -14.4% | 2.07% |
| CCOC(=O)c1cc2n(n1)CC(C)(C(=O)NCc1ccc(C)cc1)N(Cc1cccc(OC)c1)C2=O (stereo not given) | -2.7% | 6.89% | 2.86% | -4.22% | -0.25% |
| COC(=O)c1cc(COc2cc3oc(=O)cc(-c4ccccc4)c3cc2Cl)c(C)o1 | 2.27% | 1.28% | 1.23% | -1.73% | -1.55% |
| COc1ccccc1CNS(=O)(=O)c1ccc2c(c1)n(C)c(=O)n2C | -6.18% | -0.78% | -4.02% | -7.92% | -9.56% |
| O=C(c1ccc(F)c(Cl)c1)N1C[C@@H](CO)[C@H](c2ccccn2)C1 | -1.23% | 0.9% | 0.364% | 2.88% | -0.215% |
| C/C1=C\CCC2=CC(OC2=O)C(C)(C)/C=C/C1=O (stereo not given) | 4.06% | -6.56% | 8.73% | -9.53% | 0.069% |
| CN(c1ncccc1CNC(=O)C1CCOCC1)C1CCCCC1 | 0.171% | 0.771% | 0.557% | -3.28% | 0.896% |
| CC(=O)[C@@H]1CC[C@]2(C(=O)O)CC[C@]3(C)C(CCC4[C@@]5(C)CC[C@H](O)C(C)(C)C5CC[C@]43C)C12 (stereo not given in full) | 4.16% | 5.34% | 9.14% | -7.21% | 3.26% |
| Cc1ncc(C(=O)N[C@H]2CC[C@H]2NC2CCCC2)c(-c2ccccc2)n1 | -2.45% | -0.746% | -1.06% | -6.68% | -12.4% |
